Test results as given in PubChem BioAssay AID2546 (National Center for Advancing Translational Sciences (NCATS), 2010).
The campaign covered roughly 310,000 compounds. About 11,000 (3.5%) were called active. The inconclusive results got no clear call from the source; some entries with a clear call stand among them for comparison. The call rests on the fitted dose curve; in most records, active means well fitted inhibition curve with a large enough effect; inconclusive means small, poorly fitted or top-dose-only effect, or effect the other way; inactive means flat fitted curve, though single readings scatter. No potency is given beside an inconclusive call; the fits are too rough.

Experiment: VP16 counterscreen qHTS for inhibitors of ROR gamma transcriptional activity;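 further: Gal4-VP16 expression switched on by copper sulfate through the metallothionein promoter; nearly all actives have a fitted effect of over 50% in size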
Conditions: Drosophila S2 Gal4-VP16 UAS-luciferase, luminescence, 20 h; activity, negative = inhibition: at 53.6 µM (top of the series)
On the % scale 0 is the no-effect control and ±100 the full control effect; potency means the concentration at half of the fitted maximal effect; tags describe the fitted curve by direction and shape.

**Q.** With `O=c1c2cc(Cl)ccc2[nH]c(=S)n1Cc1ccccn1` as the compound, how does the Potency read?
**A.** active: 3.16 µM

**Q.** With `Fc1ccc(-c2csc(NC(=S)Nc3ccccc3)n2)cc1` as the compound, how does the Potency read?
**A.** active: 3.16 µM

**Q.** Which “activity, negative = inhibition” value does the source give for `CCC(=O)N(Cc1ccco1)c1nc(C(=O)Nc2ccc(Cl)cc2)c(C)s1` here?
**A.** inactive: -8.32%

**Q.** For `CCOc1ncccc1C(=O)Nc1cccc(C(=O)Nc2cccc(S(=O)(=O)CCO)c2)c1`, which Potency is on record?
**A.** inconclusive [inhibitor, single point]

**Q.** For `CC(=O)N(C)c1ccc(NC(=O)c2ccco2)cc1`, which Potency is on record?
**A.** inconclusive [inhibitor, full curve, poor fit]

**Q.** Which “activity, negative = inhibition” value does the source give for `Cc1cc(C(=O)c2ccccc2)c(NC(=O)CN2CCOCC2)s1` here?
**A.** inactive: -7.71%

**Q.** With `CCOc1ccc(/C=N/n2c(C3CCCCC3)n[nH]c2=S)cc1` as the compound, how does the Potency read?
**A.** inconclusive [inhibitor, full curve, poor fit]

**Q.** For `OCCN1CCN(Cc2cc(Cl)c3cccnc3c2O)CC1`, which Potency is on record?
**A.** active: 10 µM

**Q.** For `O=C(NC(=S)Nc1ccccc1N1CCCCC1)c1ccc(-c2cccc([N+](=O)[O-])c2)o1`, which Potency is on record?
**A.** active: 2.24 µM

**Q.** For `COc1ccc(NC(=S)NCCc2ccccc2OC)c(OC)c1`, which Potency is on record?
**A.** inconclusive [inhibitor, single point]

**Q.** For `Cn1c(O)c(N=NC(=O)c2ccco2)c2ccccc21`, which Potency is on record?
**A.** inconclusive [inhibitor, single point]

**Q.** Which Potency does the source give for `Cc1ccc(C)c(OCc2cc(C(=O)N(C)Cc3ccccn3)no2)c1` here?
**A.** inconclusive [inhibitor, single point]

**Q.** For `Cc1cc(C(=O)Nc2sc3c(c2C#N)CCCC3)no1`, which Potency is on record?
**A.** inconclusive [inhibitor, single point]

**Q.** Which Potency does the source give for `CCc1ccc(NC(=O)C2CCN(S(=O)(=O)c3ccc4c(c3)NC(=O)C(C)S4)CC2)cc1` (stereo unspecified) here?
**A.** inconclusive [inhibitor, single point]

**Q.** For `CC1CCN(C(=S)NC(=O)C2CCCCC2)CC1`, which Potency is on record?
**A.** inconclusive [inhibitor, single point]

**Q.** With `C/C(Cn1nnc([N+](=O)[O-])n1)=N\NC(=O)c1ccc(C)cc1` as the compound, how does the Potency read?
**A.** inconclusive [inhibitor, single point]

**Q.** For `CC(C)CCNC1=NCCCCC1`, which “activity, negative = inhibition” value is on record?
**A.** inactive: -2.29%

**Q.** For `O=C(/C=C/c1ccnc2ccccc12)c1cccs1`, which Potency is on record?
**A.** active: 14.1 µM

**Q.** For `COc1cc(CN(C)Cc2ccccc2)cc(OC)c1O`, which Potency is on record?
**A.** inconclusive [inhibitor, single point]

**Q.** Which Potency does the source give for `COc1ccc(N2CCN(CC(=O)Nc3nnc(-c4ccccc4)s3)CC2)cc1` here?
**A.** inconclusive [inhibitor, single point]

**Q.** For `S=C1NC[C@H](CC2CCCCC2)N1CCCCC1CCCCC1`, which Potency is on record?
**A.** active: 3.16 µM
